Source: the supplement of paper PMC3334620
The full ranking holds about 33,000 sequences; the median of “E-score (-0.5 to 0.5)” is about -0.043, and the highest 2% start at about 0.37. The list shows a part of the results.

Molecular target: T1, Upc2 (UniProt Q12151)
T1 sequence: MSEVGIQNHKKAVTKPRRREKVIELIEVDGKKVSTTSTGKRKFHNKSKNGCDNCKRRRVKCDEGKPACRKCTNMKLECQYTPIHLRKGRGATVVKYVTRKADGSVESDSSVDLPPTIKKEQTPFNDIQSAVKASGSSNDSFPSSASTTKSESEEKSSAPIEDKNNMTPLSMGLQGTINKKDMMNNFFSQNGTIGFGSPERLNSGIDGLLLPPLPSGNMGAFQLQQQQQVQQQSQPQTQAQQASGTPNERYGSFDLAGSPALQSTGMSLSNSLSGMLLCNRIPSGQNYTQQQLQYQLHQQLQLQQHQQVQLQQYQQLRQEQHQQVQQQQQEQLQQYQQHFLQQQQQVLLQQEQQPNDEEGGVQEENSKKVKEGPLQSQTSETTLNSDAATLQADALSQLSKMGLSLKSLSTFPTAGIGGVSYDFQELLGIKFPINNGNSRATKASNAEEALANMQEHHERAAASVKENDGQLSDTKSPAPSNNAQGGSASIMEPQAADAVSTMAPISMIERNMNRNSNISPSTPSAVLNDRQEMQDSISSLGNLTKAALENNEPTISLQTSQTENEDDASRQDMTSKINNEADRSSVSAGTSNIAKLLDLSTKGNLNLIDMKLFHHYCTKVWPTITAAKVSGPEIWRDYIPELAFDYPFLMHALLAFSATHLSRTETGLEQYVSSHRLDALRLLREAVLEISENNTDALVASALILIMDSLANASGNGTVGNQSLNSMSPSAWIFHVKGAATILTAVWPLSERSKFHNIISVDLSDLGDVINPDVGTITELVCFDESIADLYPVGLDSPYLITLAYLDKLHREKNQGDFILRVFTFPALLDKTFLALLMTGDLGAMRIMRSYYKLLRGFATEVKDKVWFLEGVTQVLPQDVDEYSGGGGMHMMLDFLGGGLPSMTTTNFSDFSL
Experiment: PBM E-score (8-mer binding enrichment) (E-score (-0.5 to 0.5)); higher = stronger / more preferred TF binding; most listed sequences are background and not binding sites
Details: protein concentration: 200 nM; construct: GST-full length
How it was run: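 For each ungapped eight-base word taken together with its reverse complement, the Universal PBM Analysis Suite assigned an E-score. Binding data came from GST-tagged yeast transcription factors, applied at about 100-200 nM, on universal all-10-mer Agilent arrays made double-stranded by primer extension. Fluorescent anti-GST marked bound protein, and scans were normalised with masliner.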

Sequence | PBM E-score
GCGAGACC | 0.0589
ACTTGTTC | 0.0821
GCTGACCA | -0.158
GAAGAACC | 0.0139
AATGAATT | 0.00723
AGCACGAG | 0.108
GGTATCAA | -0.153
CGAGAACG | 0.276
AGGGATCC | -0.123
ATGTCGCG | 0.168
CCTCCCGC | -0.133
ACAGGACC | -0.213
CACGCAGA | 0.044
TATGGGAA | -0.0725
AAAAACGA | 0.288
ACTACAAC | 0.0818
TCTCCGCA | -0.185
CACATGGG | -0.351
AGCATCCC | -0.316
AGACCGAT | -0.158
GTTGGGGA | -0.0796
AGTGGGTA | -0.0804
CAGGTACC | -0.112
AGTCTGCG | -0.195
GAAGCGTC | -0.0104

Sequence | PBM E-score
GAACGGGC | 0.291
CCTCCTCG | 0.144
AGACGCCA | -0.153
GCGATCCA | 0.179
TACCTTCA | 0.0337
CCAGCCAG | -0.29
AGATATTA | 0.166
CATGATCA | -0.0393
TAAGAGTA | 0.126
CTGCATTA | -0.0709
CCAGAGGC | -0.0662
GGACTGGA | -0.318
AGGCTATA | -0.143
ACCTGGGG | -0.164
CCGCTTAA | 0.268
CGACGCCC | 0.107
CATCAGCC | -0.104
GATCAAGA | -0.0833
AATGAAAC | 0.029
AACGCGGG | 0.177
CACCGAGG | -0.114
AAACTCGG | 0.0489
ACCTCCTG | -0.194
ACCCTGGG | 0.00937
TGTCGACA | 0.063

Sequence | PBM E-score
AGGTGAAG | -0.14
GTACATAA | 0.112
GCCGCCCC | -0.151
ATCGGCAA | -0.093
ACTGCAGC | -0.0726
ACCGCCAC | -0.0746
AAGGAATT | -0.215
AAAGAGTC | -0.0926
AAGTGTCT | -0.111
ATTTACAG | -0.0746
ACAGATTC | -0.00745
GCACCGCA | 0.0467
AGAGTCCC | -0.0876
ATGTGCAC | -0.159
AAGCAGCT | -0.103
CTGCTGCC | -0.183
GGTAGACA | -0.277
ATCTCTTA | 0.24
AACCGTGG | -0.167
ACCCAGTA | -0.0194
CCGCGCGC | -0.0182
AATAGAGA | -0.0424
GCATAGAA | -0.144
CAAGCGAG | 0.279
CATCCCCA | -0.284

Sequence | PBM E-score
ACGAACGG | 0.387
GTGGAGTA | -0.0688
ACGTCTCG | 0.275
CATTAATA | -0.0771
ATGGGAGC | -0.0499
TAGCCATA | 0.175
ACGCTAGC | -0.0654
CAACTGGA | -0.191
GATGCGCC | -0.102
AAGAATTG | 0.17
TGAGCCAA | -0.128
GACACACC | 0.0498
CTATGCAC | -0.119
AGAATTAC | 0.143
GCTAGAAA | -0.0296
CTCACACA | 0.0516
GAATGTCA | -0.238
CCAGACCA | -0.149
CAACCATC | -0.0278
GGTTCGAC | -0.0159
ACTACGCA | -0.194
CAGAGAGC | -0.203
AACGGGCC | 0.202
TGACACAA | -0.191
AATGTGTC | -0.171

Sequence | PBM E-score
CCATCCCA | -0.157
CGTTCTCA | 0.247
CCCTTAGA | -0.12
ACAAATTA | -0.02
ATGGGTCA | -0.0862
AGTGCATA | 0.0404
ATCTCCCC | -0.185
TAAGTCCA | -0.0672
ACACAAGT | 0.0927
ATTCTCTA | 0.0201
CCAGATGC | -0.206
GACGCCCC | -0.0985
TCCTCCGA | -0.108
ATATCAGA | 0.0389
GTAGATAA | 0.144
CGTGTTTC | -0.171
TCGCCGAA | 0.0671
ATAACCAG | 0.0648
ATCGCCAG | -0.132
AAGCGTAG | 0.0667
AATGAGAT | -0.058
CCAAAGAC | -0.245
AGCGATCC | 0.124
GCTCTGGA | 0.039
AGCTCCCT | -0.107

Sequence | PBM E-score
CAGGCATG | -0.279
AACGATGT | 0.388
CAGCGACG | -0.208
GCTAGACC | -0.207
CATAGAAA | 0.00027
GTTACGTA | 0.202
ATGCAGGA | -0.171
CTTAAGTA | -0.023
CCAATTCA | -0.0667
GGTAAATA | -0.0795
ACGGAGGG | 0.217
CCTGTACA | -0.0382
AGTTACCA | -0.0135
AGCATGGC | -0.181
CATGTGCA | -0.19
CGCAAGAC | -0.0394
GCGGGATA | 0.0406
AGGAGACG | 0.0203
CCACACAG | -0.203
ATACATAA | -0.0411
GCCATATA | 0.191
TACGACCA | 0.45
AGAGCACA | -0.103
ACCTATAT | 0.106
CCGGTAGA | -0.118

Sequence | PBM E-score
AATCGCTC | 0.073
AAGTTATG | -0.0806
ATCTACGA | 0.313
GAAGTATC | -0.0621
ACTGGGAA | -0.161
ACGTGAGT | -0.103
CAACCAGG | -0.171
CAATTAGA | -0.0498
CACGTGAC | -0.185
CCATCGGC | -0.102
CTCTTCAC | -0.00638
AATAATCA | 0.146
GCTTTTGA | -0.0714
CATCATGG | -0.227
AGCTCCAG | -0.0649
CCGCGATA | 0.164
CATTTTAA | -0.0408
GCACGAGA | 0.0181
GCCGGTTA | 0.0702
CAAGTCGA | -0.225
AGCCCGAA | -0.143
CGCACGAA | 0.107
GACTTCAA | -0.155
ACAGCGTG | 0.0181
ACTTGGTG | -0.184

Sequence | PBM E-score
CCGGTGTC | -0.198
AGAGAACT | 0.0757
AAGCTATG | -0.0725
TCGCTCCA | 0.193
GCACAACA | -0.122
ACCACTGC | -0.232
AGGACGCA | -0.146
CCCCGCGG | -0.0219
GGTCGCTA | 0.0544
GGTTTATA | 0.144
GATCGTCA | -0.114
AAGAGCAG | -0.206
ACTCGGAT | 0.252
AGGTCAAC | -0.0434
CCTGGCCA | -0.23
ATCGTCGA | -0.0998
GCTAGAAC | -0.0195
CGTCCGCC | -0.165
GATGCGGA | -0.151
CCTGGAAC | 0.194
GGGTGCAC | -0.128
CCAGATCA | -0.136
GTCTCTCA | -0.113
ATAATACC | -0.0586
CAAATTAG | -0.0546

Sequence | PBM E-score
AAATGTTA | -0.0925
GGGCTGCA | -0.102
GGCTGTAC | 0.125
ATCGACCC | -0.14
AAGGATGG | -0.191
GGTAATGA | -0.0164
CGAATGCG | 0.274
ACTGTCCC | -0.0858
AAGAGGGC | -0.121
TAGTCGCA | 0.0294
CTGATTTC | 0.0823
CAGGGCCA | -0.077
AACGCTAT | 0.0885
ACGATCCT | 0.296
CTCAGCCA | -0.175
TAATAAAA | 0.0277
GCCAAAAC | -0.0908
CACACCCG | 0.0898
AGGTCCAA | -0.208
